Measurements from the supplement of paper PMC5895741.

B1: MS2 coat protein; the commonest letter at each place (parent)
chain: MASNFTQFVLVDNGGTGDVTVAPSNFANGVAEWISSNSRSQAYKVTCSVRQSSAQNRKYTIKVEVPKVATQTVGGVELPVAAWRSYLNMELTIPIFATNSDCELIVKAMQGLLKDGNPIPSAIAANSGIY

Variants of: B1
Assay: apparent fitness score (VLP assembly selection enrichment vs plasmid library) (log10 ratio); higher = better expression / assembly into well-formed VLPs
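Further: counts from Illumina MiSeq reads, cDNA of packaged RNA versus plasmid DNA taken before selection, each replicate independent from library construction onward, expression induced with 0.1% arabinose.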

Variant	apparent fitness score (log10)
M89N	-1.42
M89F	0.276
M89A	-1.13
M89G	-1.15
M89V	0.652
I119L	-1.2
I119P	< -4
I119T	-0.141
A122Y	-1.53
A31K	< -4
Y59D	< -4
V80I	-0.112
V80T	1.1
V80C	-0.0295
V80E	< -4
S52W	-0.478
F8G	-1.26
F8P	-1.75
F8T	-0.816
G128Q	< -4
G128Y	< -4
G128F	< -4
S3W	-1.33
G75F	-0.869

Variant	apparent fitness score (log10)
G75I	-0.862
G75S	-0.876
G75K	-0.608
G75N	-1.81
G75W	-0.824
G75A	-0.395
S100D	1.1
S100C	0.615
S100H	0.02
C47N	< -4
C47L	0.888
A108C	-0.227
A108P	-0.654
A108F	< -4
A108S	0.712
A108G	-0.635
N99M	0.488
N99Y	-1.32
N99C	0.578
N99L	0.617
R50N	< -4
R50W	< -4
R50Q	< -4
R50Y	-1.09

Variant	apparent fitness score (log10)
R39V	< -4
R39P	-1.3
R39T	< -4
I129S	< -4
N4K	-0.642
N4C	< -4
N4Y	-1.15
W33D	< -4
W33R	-0.307
W33S	-0.709
W33H	< -4
D18Y	-1.15
D18C	< -4
D18N	0.308
Y130K	< -4
E32K	< -4
E32S	-1.57
E32Q	< -4
E32A	< -4
V21R	< -4
Q55I	0.139
Q55C	-0.145
A69F	-1.86
A69P	-1.01

Variant	apparent fitness score (log10)
A69S	-0.968
A69N	< -4
A69C	-1.76
F5S	-0.131
F5Y	0.221
I123R	-0.596
I123A	< -4
A124I	-0.935
A124E	-0.201
A124W	-0.548
A124D	< -4
I34T	0.251
I34V	0.36
I34L	-0.416
I34Q	-0.368
I34W	< -4
P118K	-0.762
P118H	< -4
P118V	< -4
P118G	-1.18
G116H	< -4
G116V	-1.1
V30I	-0.263
V30Q	< -4

Variant	apparent fitness score (log10)
T20V	0.832
P120A	0.17
P120E	-0.891
P120H	< -4
S48Q	-0.153
S48D	< -4
S48W	-0.997
L10W	-1.72
K114E	-1.33
S53Y	< -4
S53F	0.157
A54N	-0.087
A54C	< -4
N28Y	0.325
N28H	0.301
N28L	< -4
N28K	-0.721
N28G	0.719
S85F	-0.692
S85G	0.00816
S85P	-0.594
S85D	-1.3
M109P	-1.26
M109G	-1.06

Variant	apparent fitness score (log10)
M109F	-0.868
M109N	-1.26
M109D	-1.19
A97F	-2.11
A97P	-0.787
A97K	-1.48
D115M	< -4
D115Q	0.772
Y86A	-1.26
Y86D	< -4
Y86I	-1.03
T98P	-0.568
V19F	-0.722
V19L	-0.338
V19N	-0.797
R84G	-0.526
R84S	-1.78
R84M	< -4
P79G	< -4
P79H	-0.706
P79R	< -4
P79V	< -4
L78Q	< -4
A125C	0.705

Variant	apparent fitness score (log10)
A125T	0.662
A125F	-0.576
V63N	-0.907
V63L	0.637
V63P	-1.68
V63A	0.353
V63I	0.599
C102L	-0.831
C102Y	-1.3
C102G	-2.18
C102E	-1.05
A2D	-0.514
F96A	-0.753
F96E	-1.61
F96T	< -4
N117E	-1.12
N117A	0.73
G111Y	< -4
G111I	< -4
G111A	-0.935
K44D	< -4
K67H	< -4
K67D	< -4
K67Q	< -4

Variant	apparent fitness score (log10)
I105E	< -4
I105G	< -4
V106P	< -4
T70A	-0.08
T70M	< -4
T70N	0.642
T72I	0.514
T72F	0.427
T72N	0.454
V68W	0.476
V68P	0.581
T46R	-1.62
K58D	< -4
K58T	-0.44
K58R	0.0614
E64R	-1.31
E64Y	-1.3
E64G	0.121
S35A	-0.545
G29W	0.397
G29E	0.234
G29Y	< -4
G29V	0.232
D12G	-2.11

Variant	apparent fitness score (log10)
D12L	-0.895
D12M	-0.427
D12F	< -4
Q7G	-0.22
Q7N	1.08
Q7M	-0.448
Q7R	0.619
Q7I	-0.401
Q7F	-1.01
Q7S	0.58
Q7V	-1.39
I93K	-1.11
I93R	-1.12
S40F	-0.213
S40N	-0.771
N13W	-1.03
N13F	0.108
N13I	-0.515
Q41F	< -4
Q41S	-0.487
Q41G	-0.869
A82V	< -4
T92W	0.361
T92Y	0.238

Variant	apparent fitness score (log10)
T92H	0.0362
Q110P	< -4
Q110E	< -4
Q110L	-1.1
Q110N	< -4
A22E	< -4
A22I	-1.25
P94D	< -4
P94M	-1.24
P94E	-2.13
P94A	-0.655
L87F	-0.735
L87S	-0.746
L87Q	< -4
A42D	-0.51
A42P	-0.806
A42S	-0.204
A42Q	-1.52
A42N	-0.943
A42K	-0.596
A42V	-0.268
G17E	-0.735
G17N	0.357
V11C	< -4

Variant	apparent fitness score (log10)
V11W	< -4
S24R	-1.04
S24P	-0.747
S24Y	-1.02
S24D	< -4
S24T	< -4
A81F	< -4
A81P	-0.931
A81E	< -4
A81V	< -4
L112S	-1.56
L112F	-0.754
G15D	< -4
G15P	-1.73
V49N	0.382
V49L	0.695
N37E	0.0863
N37Q	0.0471
L104K	0.26
L104S	0.256
L104T	0.0743
S121V	0.554
S121Y	< -4
S121I	0.464

Variant	apparent fitness score (log10)
S121K	-0.00271
N56K	-0.865
V65Q	-0.388
V65C	0.434
V65E	-0.887
V65K	< -4
V9H	< -4
W83G	-1.09
G14N	0.372
Q51C	-0.867
Q51I	-1.47
Y43C	-0.107
N88R	0.86
N88K	0.921
N88I	0.818
I95R	-1.93
I95A	< -4
I95D	-0.236
F26R	0.518
F26H	0.465
F26L	0.958
N126T	-1.02
N126A	< -4
N126I	< -4

Variant	apparent fitness score (log10)
N126M	< -4
K62R	0.581
K62C	0.0423
K62I	< -4
K62V	0.0499
V45I	< -4
V45C	0.0122
E90Q	0.782
E90K	0.724
E90F	0.751
E90N	0.836
E90A	1.09
G74C	0.261
R57W	0.612
R57F	0.153
R57M	-0.321
S36M	0.546
S36C	0.809
S36Y	0.722
S127A	0.0457
S127M	< -4
V76K	-0.831
V76P	-0.0518
V76D	-1.15

Variant	apparent fitness score (log10)
V76R	-0.84
V76T	-1.03
T60I	1.09
T60C	0.789
T60E	0.476
V73T	0.5
V73D	0.00441
V73Q	0.504
V73G	-0.0891
K107C	< -4
K107M	-0.0877
T16Y	0.11
T16W	-0.278
E103C	0.784
E103T	0.487
E103K	0.109
E77C	0.708
E77N	0.604
E77L	0.552
L113T	0.626
L113M	0.726
L113E	< -4
